Reference: PMC6919601, “Identification of Plasmodium dipeptidyl aminopeptidase allosteric inhibitors by high throughput screening” (PLoS ONE, 2019)
About 230 (0.21%) of roughly 110,000 compounds showed an effect of 50% or more. Some of the results follow.

The molecules below were run against DPAP1 (Plasmodium falciparum, UniProt Q8IIJ9) (assay: primary screen, percent inhibition; read by cleavage of a fluorogenic dipeptide substrate; higher = more effect of the substance).
Parameters: species or system P. falciparum D10 trophozoite lysates; single well
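Note: 30 min substrate incubation versus DMSO and 10 µM JCP410 controls.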

Chain of DPAP1 (Q8IIJ9 whole entry, looked up): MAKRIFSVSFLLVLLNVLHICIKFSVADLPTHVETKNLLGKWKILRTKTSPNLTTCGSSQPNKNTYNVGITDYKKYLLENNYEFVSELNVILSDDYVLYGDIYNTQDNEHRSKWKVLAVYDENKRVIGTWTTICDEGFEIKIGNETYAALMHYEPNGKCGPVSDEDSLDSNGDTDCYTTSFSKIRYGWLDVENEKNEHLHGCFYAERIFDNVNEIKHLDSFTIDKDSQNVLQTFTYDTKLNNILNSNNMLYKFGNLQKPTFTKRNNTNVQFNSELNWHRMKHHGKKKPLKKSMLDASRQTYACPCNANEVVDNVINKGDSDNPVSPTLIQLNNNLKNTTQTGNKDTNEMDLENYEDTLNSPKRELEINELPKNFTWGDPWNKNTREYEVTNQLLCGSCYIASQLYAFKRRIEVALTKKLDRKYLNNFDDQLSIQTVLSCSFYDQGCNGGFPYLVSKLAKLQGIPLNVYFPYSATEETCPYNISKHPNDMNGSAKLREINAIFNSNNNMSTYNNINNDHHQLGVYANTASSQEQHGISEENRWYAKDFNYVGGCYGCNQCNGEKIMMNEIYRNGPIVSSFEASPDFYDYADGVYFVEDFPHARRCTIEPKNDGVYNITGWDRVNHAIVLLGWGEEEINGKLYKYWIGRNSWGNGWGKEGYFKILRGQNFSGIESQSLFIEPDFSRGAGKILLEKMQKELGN

First: O=C(O)CCC1COc2ccccc2O1 (centres unmarked)
Second: c1ccc(C2=Nn3c(nnc3C3COc4ccccc4O3)SC2)cc1 (centres unmarked)
The “% Inhibition @ 10 uM” value of the first is lower: -5.38% for the first, 6.01% for the second.

Compared with O=C1CSC2(C(=O)Nc3ccccc32)N1c1ccc(Cl)c(Cl)c1 (centres unmarked), O=C(O)C1Cc2c([nH]c3ccccc23)C(c2ccc(Cl)cc2Cl)N1 (centres unmarked) is higher in “% Inhibition @ 10 uM” value: -0.292% for the first, 4.22% for the second.

First: Cc1nc2ccccc2n1CCc1nc2c3ccccc3nc(NCCCN3CCCCC3)n2n1
Second: c1ccc2c(c1)nc1n2CCN1CCN1CCCCC1
The “% Inhibition @ 10 uM” value of the first is higher: -2.42% for the first, -5.2% for the second.

Going from COc1ccc(C(=O)Nc2cccc(C(F)(F)F)c2)c(OC)c1 to COc1ccccc1C(=O)Nc1ccc(C)c(O)c1, the “% Inhibition @ 10 uM” value falls from 4.49% to 4.11%.

First: CC(C)CC(=O)C1=C(O)C(=O)N(Cc2ccccc2)C1c1ccccc1 (centres unmarked)
Second: CCC(Oc1ccccc1)C(=O)NCCc1ccccc1 (centres unmarked)
The “% Inhibition @ 10 uM” value of the first is higher: 4.61% for the first, 2.01% for the second.

Going from CC1CC(C)CN(S(=O)(=O)c2ccc(F)cc2)C1 (centres unmarked) to Cc1ccc(S(=O)(=O)N2CCN(C(=O)CSc3nc(C)cc(O)n3)C2)cc1, the “% Inhibition @ 10 uM” value falls from 3.95% to -1.69%.

Compared with COc1ccc2cc3c(N)nn(C(=O)c4cc(OC)c(OC)c(OC)c4)c3nc2c1, COc1cc(/C=C/c2nc3ccccc3nc2O)cc(OC)c1OC is higher in “% Inhibition @ 10 uM” value: -2.14% for the first, 4.11% for the second.

Going from CCC(C)NC(=O)c1ccc(NC(=O)C2(c3ccc(OC)cc3)CCOCC2)cc1 (centres unmarked) to COc1ccc(NC(=O)c2sc3nc4ccccc4cc3c2N)cc1, the “% Inhibition @ 10 uM” value rises from 3.17% to 5.48%.

Going from O=C(NCCCN1CCc2ccccc2C1)C1CCCN(S(=O)(=O)N2CCCCCC2)C1 (centres unmarked) to CCc1ccccc1N(CC(=O)N1CCCCCC1)S(C)(=O)=O, the “% Inhibition @ 10 uM” value falls from 3.48% to 1.85%.

Going from COc1cccc(C2C=C(c3ccc(C)c(C)c3)Nc3ncnn32)c1OC (centres unmarked) to CCn1nc(-c2ccc(OC)c(OC)c2)c2c(=O)n(C)c(=O)[nH]c21, the “% Inhibition @ 10 uM” value rises from -1.48% to 13.2%.

Compared with Clc1ccccc1OCCCN1CCOCC1, CN1CCN(Cc2ccc(Cl)c(Cl)c2)CC1 is lower in “% Inhibition @ 10 uM” value: 3.95% for the first, -3.71% for the second.

Compared with O=C1C2C3CCC(C3)C2C(=O)N1c1ccc(Oc2ccccc2)cc1 (centres unmarked), CC(c1ccccc1)N1C(=O)c2ccccc2C1C(=O)NC1CCCCC1 (centres unmarked) is higher in “% Inhibition @ 10 uM” value: -5.13% for the first, 1.16% for the second.

Compared with COc1ccc(CCNC(=O)c2cnn(-c3ccccc3)c2-n2cccc2)c(OC)c1, COc1cccc(-c2nn(C)c3sc(C(=O)Nc4cnc5ccccc5c4)cc23)c1 is higher in “% Inhibition @ 10 uM” value: -7.1% for the first, 7.59% for the second.

Compared with Cc1ccc(S(=O)(=O)Nc2c(Cl)cc(Cl)c3cccnc23)cc1, Cc1cc(C)nc(NS(=O)(=O)c2ccc(N3C(=O)c4ccccc4C3=O)cc2)n1 is lower in “% Inhibition @ 10 uM” value: 0.0345% for the first, -0.736% for the second.

First: O=C(NCC1CCCO1)c1cccs1 (centres unmarked)
Second: Cc1c(C(=O)NCC2CCCO2)oc2ccc3c(c12)C(=O)CC(C)(c1ccc(Cl)cc1)O3 (centres unmarked)
The “% Inhibition @ 10 uM” value of the first is lower: -1.22% for the first, -0.447% for the second.

First: COc1ccccc1-c1nc2s/c(=C\c3sccc3C)c(=O)n2n1
Second: COc1ccccc1-c1c(C)nn2c(N3CCCCCC3)cc(C)nc12
The “% Inhibition @ 10 uM” value of the first is lower: -1.18% for the first, 0.238% for the second.

Going from Cc1cccc(C2C3(C#N)C(N)=NC4(OCCO4)C23C#N)c1 (centres unmarked) to Cc1ccc(C2C(C#N)=C(N)OC3=C2C(=O)CC(c2ccccc2Cl)C3)cc1 (centres unmarked), the “% Inhibition @ 10 uM” value rises from -3.13% to -0.99%.

First: N#Cc1ccccc1NC(=O)Cc1ccccc1
Second: CCOc1ccccc1NC(=O)CCc1ccccc1
The “% Inhibition @ 10 uM” value of the first is higher: 4.75% for the first, -0.48% for the second.

First: COc1ccc(-c2nc(CSc3nnc(C)n4c3cc3sccc34)c(C)o2)cc1OC
Second: CCc1ccc(-n2nc(C)c3c(C)cc(=O)n(CC(=O)NC(C)c4cc(OC)ccc4OC)c32)cc1 (centres unmarked)
The “% Inhibition @ 10 uM” value of the first is lower: 2.81% for the first, 12% for the second.

Compared with CCOC(=O)c1c(NC(=O)COc2ccc(Cl)cc2Cl)sc(C(=O)N2CCCCC2)c1C, CCc1c(C)sc(NC(=O)COc2ccccc2)c1C(N)=O is lower in “% Inhibition @ 10 uM” value: -5.03% for the first, -9.11% for the second.

Compared with CCOCCCN(Cc1ccco1)C(=O)Nc1cn(CC(C)C)c(=O)c2ccccc12, CCC(C)NC(=O)Cn1ncc2c3ccccc3n(Cc3ccccc3F)c2c1=O (centres unmarked) is lower in “% Inhibition @ 10 uM” value: 4.74% for the first, 3.4% for the second.

First: CN(C)CCN(C)CC(c1ccccc1)c1ccccc1
Second: CC(Nc1oc(COc2ccccc2F)nc1C#N)c1ccccc1 (centres unmarked)
The “% Inhibition @ 10 uM” value of the first is higher: 1.62% for the first, -6.55% for the second.

Compared with CCC1(C)OC(=O)N(C2CC(C)(C)NC(C)(C)C2)C1(C)O (centres unmarked), CCn1ncc(C2=NOC(C(=O)O)C2)c1C (centres unmarked) is higher in “% Inhibition @ 10 uM” value: -2.54% for the first, 1.89% for the second.

Going from Cn1c(S(=O)(=O)Cc2ccccc2)nc2ccccc21 to Clc1cccc(N2CCN(Cc3ccccc3)CC2)c1, the “% Inhibition @ 10 uM” value falls from -1.56% to -8.39%.

Compared with CCOc1cc(C(=O)NC(CC(=O)O)c2ccc(OC3CCCC3)cc2)cc(OCC)c1OCC (centres unmarked), CCCCCOc1ccc(C2C(C(=O)OCCOC)=C(C)N=C3SC(CC)C(=O)N32)cc1 (centres unmarked) is lower in “% Inhibition @ 10 uM” value: 1.32% for the first, -1.18% for the second.

First: Cc1cc(N2C(=O)CCC2=O)n(-c2ccccc2)n1
Second: Cc1[nH]c2ccccc2c1/C=C1\SC(=O)NC1=O
The “% Inhibition @ 10 uM” value of the first is higher: 2.76% for the first, 1.74% for the second.

Compared with COCC(C)NC(=O)c1cc(-c2ccc(F)cc2)on1 (centres unmarked), Cc1nn(Cc2cccc(C(=O)Nc3ccccc3F)c2)c(C)c1Cl is higher in “% Inhibition @ 10 uM” value: -4.07% for the first, -1.06% for the second.

Going from O=C([C@@H](c1ccccc1)N1Cc2ccccc2C1=O)N1CCN(c2ccccn2)CC1 to CCn1cc(CCCC(=O)N2CCN(c3ccccn3)CC2)c2ccccc21, the “% Inhibition @ 10 uM” value rises from -0.465% to 3.71%.

First: S=c1nc(-c2ccccc2)n(-c2ccc(Cl)cc2)c2c1CCCC2
Second: O=C(Nc1ccccn1)c1nc(-c2ccc(Cl)cc2)n2c1CCCCC2
The “% Inhibition @ 10 uM” value of the first is lower: -0.711% for the first, 0.214% for the second.

Going from c1ccc(N2CCN(CCCn3c4ccccc4c4ccccc43)CC2)cc1 to O=C(Cn1ncc2c3ccccc3n(Cc3ccccc3)c2c1=O)N1CCN(c2ncccn2)CC1, the “% Inhibition @ 10 uM” value rises from -0.636% to 4.95%.

First: O=C1NC(C(F)(F)F)(C(F)(F)F)N=C2SC=CN12
Second: Cc1ccc(O)c(-c2[nH]nc3c2C(c2ccccc2F)N(CCO)C3=O)c1 (centres unmarked)
The “% Inhibition @ 10 uM” value of the first is higher: 6.28% for the first, 0.558% for the second.

Going from CC(C)CCNC(=O)CCCn1c(=O)c2cccn2c2cccnc21 to CNC(=O)c1cc2c(=O)n3ccccc3nc2n(Cc2cccnc2)c1=N, the “% Inhibition @ 10 uM” value falls from 2.03% to -1.47%.

First: CCCCNC(=S)NCCc1c(C)[nH]c2ccccc12
Second: CCOC(=O)c1cnc(SCC(=O)NCCc2ccccc2)nc1N
The “% Inhibition @ 10 uM” value of the first is lower: -9.69% for the first, -1.6% for the second.

First: CC(C)n1cc(/C=C2/NC(=O)NC2=O)c2ccccc21
Second: CC(C)c1ccc(/C=C2/NC(=O)NC2=O)cc1
The “% Inhibition @ 10 uM” value of the first is lower: -3.06% for the first, -1.25% for the second.

Going from CS(=O)(=O)C1=NN2C(=N)/C(=C\c3ccc(OCc4ccc(Cl)cc4)cc3)C(=O)N=C2S1 to COc1ccc(CN2C(=O)c3oc4ccc(Br)cc4c(=O)c3C2c2cccc(O)c2)cc1 (centres unmarked), the “% Inhibition @ 10 uM” value rises from -3.39% to -1.73%.

First: CC1=C(C)CC(C(=O)Nc2ccccc2C)C(C(=O)O)C1 (centres unmarked)
Second: CC(=O)c1c(O)cc(C)o/c1=N\c1ccccc1N
The “% Inhibition @ 10 uM” value of the first is higher: -1.37% for the first, -2.54% for the second.

First: CCc1[nH]nc2c1C(c1cc(OC)ccc1OC)C(C#N)=C(N)O2 (centres unmarked)
Second: CCOC(=O)C1=C(O)/C(=C\c2ccc(OC)cc2)N=C1C
The “% Inhibition @ 10 uM” value of the first is lower: -2.91% for the first, 3.05% for the second.

Compared with Cc1ccc(Oc2nc3ccccn3c(=O)c2/C=C(\C#N)C(=O)N2CCOCC2)cc1, Cc1ccc(C2c3c(-c4ccccc4O)n[nH]c3C(=O)N2CCO)cc1 (centres unmarked) is lower in “% Inhibition @ 10 uM” value: 8.51% for the first, -1.56% for the second.

Going from CCOCCCNC(=O)CSc1ccc(Cl)cc1 to O=C(c1ccc(Cl)cc1)N1CCN(C(=O)c2ccco2)CC1, the “% Inhibition @ 10 uM” value falls from 12.4% to -1.29%.

First: Brc1ccc(CN2C3=NCCCN3c3ccccc32)cc1
Second: Cc1nc2cc(C(=O)NCc3ccc4c(c3)OCO4)ccc2n1-c1ccc(Br)cc1
The “% Inhibition @ 10 uM” value of the first is lower: -4.6% for the first, 4.35% for the second.

Compared with CCOC(=O)c1cc(CC)sc1NC(C)=O, CCN(CC)C(=O)c1c(NC(=O)c2ccco2)sc2c1CCCC2 is lower in “% Inhibition @ 10 uM” value: 15.3% for the first, -10.8% for the second.

Going from CCOc1ccc2nc(N3CCCC(C(=O)N4CCN(Cc5ccccc5)CC4)C3)sc2c1 (centres unmarked) to CN1CCN(C(=O)c2cccc(COc3cc(Cl)ccc3Cl)c2)CC1, the “% Inhibition @ 10 uM” value falls from 1.8% to -3.13%.

Compared with CCOC(=O)N1CCC(N2CCN(c3ccccc3F)CC2)CC1, CCOC(=O)N1CCN(C(=O)Cn2ncc3c2-c2cc(C)ccc2OC3)CC1 is higher in “% Inhibition @ 10 uM” value: -3.6% for the first, -0.883% for the second.

Going from Cc1nc2ccn(Cc3cccnc3)c(=O)c2cc1C(=O)NCc1ccc(F)cc1 to O=C(Nc1cc(-c2ccccc2)[nH]n1)c1cc2c(s1)-c1ccccc1OC2, the “% Inhibition @ 10 uM” value falls from 0.234% to -3.08%.

First: N#Cc1c(/N=C/N2CCOCC2)sc2c1CCCC2
Second: Cc1nc(O)c(C(=O)/C=C/c2cccs2)c2c1CCCC2
The “% Inhibition @ 10 uM” value of the first is higher: 0.392% for the first, -3.44% for the second.

First: CCOc1ccc(C2c3c(-c4ccccc4O)n[nH]c3C(=O)N2CC2CCCO2)cc1OC (centres unmarked)
Second: CC(CCc1ccccc1)NC(=O)C1CCN(S(=O)(=O)c2ccc(Br)s2)CC1 (centres unmarked)
The “% Inhibition @ 10 uM” value of the first is lower: -1.35% for the first, -0.0508% for the second.

Going from CC(C(N)=O)C1=NC(C)(C)Cc2ccccc21 (centres unmarked) to CCN1C(=O)C(CC(=O)Nc2ccccc2)S/C1=N/C1CCCCCC1 (centres unmarked), the “% Inhibition @ 10 uM” value falls from -3.05% to -15.4%.

First: CC(=O)Nc1ccc(Oc2ccc(NC(C)=O)c(N)c2)cc1N
Second: Cc1cccc(C(=O)Nc2cc([N+](=O)[O-])ccc2Cl)c1
The “% Inhibition @ 10 uM” value of the first is lower: 2.95% for the first, 5.43% for the second.

Going from CCC(C)c1ccc(NC(=O)C2C3C=CC(O3)C2C(=O)O)cc1 (centres unmarked) to Cc1cc(N2CCCC(C(=O)O)C2)n2cnnc2n1 (centres unmarked), the “% Inhibition @ 10 uM” value falls from -3.24% to -5.33%.

Compared with CCCNC(=O)OCCOC12CC3CC(CC(C3)C1)C2, CCCOC(=O)c1sc2nc(C)c(C)c(C)c2c1N is higher in “% Inhibition @ 10 uM” value: -0.712% for the first, 7.49% for the second.

With OCC1CCCCN1Cc1cc(F)ccc1F (centres unmarked) the “% Inhibition @ 10 uM” value was -1.75%.
